# From PubChem BioAssay AID624418 (National Center for Advancing Translational Sciences (NCATS), 2012)
# Among all 410,000 compounds or so, about 530 (0.13%) were called active. Inconclusive means that the source gave no clear call. Such entries were picked first, then a sample of the others. Calls come from the whole dose curve; as a rule, active = well fitted inhibition curve with a large enough effect; inconclusive = small, poorly fitted or top-dose-only effect, or another doubt; inactive = no such curve, though single readings can be large or run the other way. Potencies of inconclusive entries are doubtful fits and often do not repeat.
# Assay: qHTS of GLP-1 Receptor Inverse Agonists: Cytotox Screen
# Settings: HEK293 cAMP-luciferase reporter cells, luminescence, 24 h; activity change, negative = inhibition: at 38.3 µM (top of the series) unless noted
# Summary of the method: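 Compound-treated cells are incubated 24 hr at 37 deg C under 5% CO2 after a 12 hour attachment period, then luciferase detection reagent is added and luminescence is measured following 12 min at room temperature; lowered signal indicates toxicity.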
# % is set by controls: 0 for no effect and ±100 for the full control effect; potency is the fitted concentration of half-maximal effect.
Compound,Potency,"activity change, negative = inhibition"
O=C(Nc1cccc(C(F)(F)F)c1)c1ccc2c(c1)nnn2C1CCCC1,inactive,–
COC(=O)c1cc(C(=O)c2c(C)cc3ccccn23)cc([N+](=O)[O-])c1,"inconclusive: 12.6 µM [inhibitor, partial curve, poor fit]",–
Cc1ccc(-n2cc(CNCCc3cscn3)c(-c3ccc(F)cc3)n2)cc1,"inconclusive: 28.2 µM [inhibitor, single point]",–
O=C(/C=C\c1ccc2c(c1)OCO2)Nc1c2c(nn1-c1ccc(Cl)cc1)CSC2,"inconclusive: 10 µM [inhibitor, partial curve, poor fit]",–
CN(C)Cc1csc(NC(=O)Nc2ccccc2Oc2ccccc2)n1,"inconclusive: 31.6 µM [inhibitor, single point]",–
Cn1cc(CN(C(=O)Nc2ccccc2)C2CCCCC2)c2ccccc21,"inconclusive: 12.6 µM [inhibitor, single point]",–
CCN1CCN(c2ccc([N+](=O)[O-])c(Sc3nc4ccccc4[nH]3)c2)CC1,"inconclusive: 12.6 µM [inhibitor, single point]",–
CSc1ccccc1C(=O)NCCOc1cccc(C)c1,–,inactive: -14.5% [at 0.307 µM]
CC(C)(CN1CCNCC1)NS(=O)(=O)c1ccc(Cl)cc1,"inconclusive: 20 µM [inhibitor, single point]",–
Cc1ccccc1OCC(O)CNC1CCC(NCC(O)COc2ccccc2C)CC1 (stereo not given),"inconclusive: 2.51 µM [inhibitor, full curve]",–
Cc1ccccc1NC(=O)CN1CCCC1,inactive,–
CCOc1ccc2c(c1)C(c1ccc(C)cc1)=NNC(c1ccc(OC)cc1)=N2,"inconclusive: 7.08 µM [inhibitor, partial curve, poor fit]",–
COc1cc(/C=N/N=C2/C(=O)Nc3ccccc32)ccc1O,"inconclusive: 28.2 µM [inhibitor, single point]",–
CCCCCc1cc(=O)oc2c(C(CCN3CCCCC3)c3ccc(OC)cc3)c(OC)cc(OC)c12 (stereo not given),"inconclusive: 15.8 µM [inhibitor, single point]",–
N=C(N)SCc1cn(-c2ccccc2)nc1-c1ccc(Br)cc1,"inconclusive: 28.2 µM [inhibitor, single point]",–
O=C(CN1CCN(C(=O)C2CC2)CC1)Nc1cc(C(F)(F)F)cc(C(F)(F)F)c1,"inconclusive: 5.01 µM [inhibitor, full curve, poor fit]",–
CC1CCC2C(=O)N(c3ccc(C(=O)Oc4cccc5cccnc45)cc3)C(=O)C2C1 (stereo not given),"inconclusive: 3.98 µM [inhibitor, full curve, poor fit]",–
COCCCNC(=O)Cn1cnc2sc(C)c(S(=O)(=O)N3CCC(C)CC3)c2c1=O,inactive,–
CCCN(CCC)CCNC(=O)C1c2ccccc2C(=O)N(CCOC)C1c1ccc(F)cc1 (stereo not given),"inconclusive: 28.2 µM [inhibitor, single point]",–
COc1ccc(-c2cc(-c3ccccc3)n[nH]2)c(O)c1,inactive,–
O=C(Cn1c(=O)c2cccn2c2cccnc21)NCCCN1CCN(c2ccc(F)cc2)CC1,"inconclusive: 12.6 µM [inhibitor, single point]",–
Oc1c(C(c2ccccn2)N2CCOCC2)ccc2cccnc12 (stereo not given),"inconclusive: 1.41 µM [inhibitor, full curve, poor fit]",–

Compound,Potency,"activity change, negative = inhibition"
CCCCc1ccc(N/C(N)=N/c2nc(C)cc(C)n2)cc1,"inconclusive: 28.2 µM [inhibitor, single point]",–
COc1ccc(NC(=S)NC2CCCCCC2)c(OC)c1,"inconclusive: 28.2 µM [inhibitor, single point]",–
COc1cc(/C=N/NC(=O)CC2(C)OCCCO2)ccc1OCc1ccc(Cl)cc1Cl,inactive,–
N#Cc1cccc2c1-c1ccccc1/C2=N/NC(N)=S,–,inconclusive: -104% [inhibitor]
Cc1cc(C)cc(NC(=O)N2CCCN(c3ncccc3[N+](=O)[O-])CC2)c1,"inconclusive: 28.2 µM [inhibitor, partial curve, poor fit]",–
Cc1ccccc1OCCSc1nc2ccc(NC(=O)c3cccc(F)c3)cc2s1,inactive,–
O=[N+]([O-])c1cc(-c2ncccn2)c([N+](=O)[O-])s1,"inconclusive: 10 µM [inhibitor, partial curve, poor fit]",–
Cc1c(C(=O)NCc2ccccc2Cl)sc2ncnc(N(C)C3CCCCC3)c12,inactive,–
Cc1ccccc1-c1nc(CN2CCC(C(=O)NCc3ccc(F)cc3)CC2)c(C)o1,inactive,–
C[C@H](CO)N1C[C@H](C)[C@@H](CN(C)S(=O)(=O)c2ccccc2)OCCCC[C@H](C)Oc2ccc(NC(=O)CCC(F)(F)F)cc2C1=O,inactive,–
C=CCNC(=S)NNC(=O)c1ccc(OCCCC)cc1,"inconclusive: 3.98 µM [inhibitor, full curve, poor fit]",–
CC(C)(C)OC(=O)N(CCc1ccccc1)Cc1ccc(OCc2cccc(NC(=O)c3ccccc3)c2)cc1,inactive,–
CCc1ccc(NC(=O)CN2C(=O)c3cccc4cccc2c34)cc1,inactive,–
O=C(CCN1CCN(c2ccccc2F)CC1)c1ccc(Br)cc1,"inconclusive: 11.2 µM [inhibitor, single point]",–
Cc1ccc(NC(=O)CSc2n[nH]c(-c3ccccn3)n2)cc1,"inconclusive: 20 µM [inhibitor, single point]",–
Cc1cccc(NC(=O)C2CCCN2S(=O)(=O)c2ccc3nc(-c4ccccc4)[nH]c3c2)c1 (stereo not given),inactive,–
Cc1ccc(NC(=O)CC2Oc3ccccc3NC2=O)cc1C (stereo not given),inactive,–
COc1ccc([N+](=O)[O-])cc1NC(=O)CSCc1cc(C)cc(C)c1,inactive,–
O=[N+]([O-])c1ccc2c(c1)N([O-])C1(CCCCC1)[N+]2=O,"inconclusive: 28.2 µM [inhibitor, single point]",–
C[C@H]1CC[C@@]2(O[C@@H](CCO)C[C@@H](O)[C@@H]2O)O1,"inconclusive: 2.82 µM [inhibitor, partial curve, poor fit]",–
COC(=O)c1cc2c(n1S(=O)(=O)c1ccc(C)cc1)C(=O)C(=O)c1[nH]cc(C(=O)OCc3ccccc3)c1-2,active: 3.98 µM,–
Cc1ccc(CN2C(=O)c3ccccc3Sc3ccc(C(=O)NCCN4CCOCC4)cc32)cc1,"inconclusive: 31.6 µM [inhibitor, single point]",–

Compound,Potency,"activity change, negative = inhibition"
Cc1cc(C)c2ccc(NN)nc2c1O,"inconclusive: 11.2 µM [inhibitor, partial curve, poor fit]",–
CN(C(=O)c1ccc(NC(=O)C2CCCN(C(=O)OC(C)(C)C)C2)cc1)C1CCCC1 (stereo not given),"inconclusive: 1.78 µM [inhibitor, full curve, poor fit]",–
O=C(NCCNc1ccc([N+](=O)[O-])cc1)c1ccc(Cl)cc1,"inconclusive: 22.4 µM [inhibitor, single point]",–
CCOC(=O)N1CCN(CCC(=O)Nc2cc([N+](=O)[O-])ccc2OC)CC1,"inconclusive: 11.2 µM [inhibitor, single point]",–
C/C(=N/NC(=S)Nc1ccccc1)c1ccc2c(c1)OCO2,"inconclusive: 3.55 µM [inhibitor, full curve, poor fit]",–
Oc1ccc(Cl)cc1-c1cc(-c2ccco2)[nH]n1,"inconclusive: 31.6 µM [inhibitor, partial curve, poor fit]",–
COc1cccc(CN(C)C(=O)c2cc(-c3cccs3)nc3ccccc23)c1,"inconclusive: 28.2 µM [inhibitor, single point]",–
NC(Cc1ccc(Cl)cc1)c1csc(Nc2cc(Oc3ccccc3)ncn2)n1 (stereo not given),"inconclusive: 22.4 µM [inhibitor, single point]",–
CCN1C(=O)[C@H]2[C@@H](c3ccc(C)cc3)N3C(=O)N(c4cccc(Cl)c4)C(=O)[C@@]3(Cc3ccc(Cl)cc3)[C@H]2C1=O,"inconclusive: 2.51 µM [inhibitor, partial curve, poor fit]",–
CN(Cc1ccccc1)CC(O)COc1ccc(CNCCc2cccnc2)cc1 (stereo not given),"inconclusive: 4.47 µM [inhibitor, partial curve, poor fit]",–
COc1ccc(CN(C(=O)c2ccc3c(c2)OCCO3)C(C(=O)NC2CCCCC2)c2ccc3ncccc3c2)cc1 (stereo not given),"inconclusive: 0.794 µM [inhibitor, full curve, poor fit]",–
NC(Cc1ccc(C(F)(F)F)cc1)c1csc(Nc2cc(Oc3ccccc3)ncn2)n1 (stereo not given),"inconclusive: 28.2 µM [inhibitor, single point]",–
CCOC(=O)[C@]12Cc3c(cc(OC)c(OC)c3OC)[C@H]1N(C1CCCCC1)C(=O)c1cc(OC)ccc12,"inconclusive: 28.2 µM [inhibitor, single point]",–
CCc1ccc(NC(=O)CC2C(=O)NCCN2C(=O)c2ccc(F)cc2)cc1 (stereo not given),inactive,–
CC(=O)N=c1sc2ccccc2n1C,inactive,–
COc1cccc(C(=O)Nc2nc(SCc3ccc(Cl)cc3)n[nH]2)c1,"inconclusive: 5.01 µM [inhibitor, full curve]",–
COc1cccc(C2CC(=O)Nc3c2ccc(C)c3C)c1OC (stereo not given),inactive,–
Cc1nc(-[n+]2nc(-c3ccncc3)nn2-c2ccccc2)sc1C,"inconclusive: 11.2 µM [inhibitor, partial curve, poor fit]",–
CSc1ccc(CNC(=O)Cn2nc(N3CCN(c4ccccc4)CC3)ccc2=O)cc1,inactive,–
CCN1CCN(C(c2ccc(OC)cc2)C(O)C(=O)c2c[nH]c3ccccc23)CC1 (stereo not given),inactive,–
COCCNC(=S)N/N=C(\C)c1ccc(OC)cc1,"inconclusive: 25.1 µM [inhibitor, single point]",–
